# Test results reported in paper PMC4336329 (PLoS ONE, 2015).
# The campaign covered roughly 310,000 compounds. About 14,000 (4.5%) showed an effect of 50% or more. The effect is printed as a negative number. Some of the results follow.
# Molecular target: human ether-à-go-go-related gene (hERG) potassium channel (human, UniProt Q12809)
# Experiment: primary screen, population patch clamp on CHO cells stably expressing hERG
# 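Also: peak tail current of the secondary pulse compared with the same well before compound.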
# Sequence of human ether-à-go-go-related gene (hERG) potassium channel (Q12809 whole entry, looked up): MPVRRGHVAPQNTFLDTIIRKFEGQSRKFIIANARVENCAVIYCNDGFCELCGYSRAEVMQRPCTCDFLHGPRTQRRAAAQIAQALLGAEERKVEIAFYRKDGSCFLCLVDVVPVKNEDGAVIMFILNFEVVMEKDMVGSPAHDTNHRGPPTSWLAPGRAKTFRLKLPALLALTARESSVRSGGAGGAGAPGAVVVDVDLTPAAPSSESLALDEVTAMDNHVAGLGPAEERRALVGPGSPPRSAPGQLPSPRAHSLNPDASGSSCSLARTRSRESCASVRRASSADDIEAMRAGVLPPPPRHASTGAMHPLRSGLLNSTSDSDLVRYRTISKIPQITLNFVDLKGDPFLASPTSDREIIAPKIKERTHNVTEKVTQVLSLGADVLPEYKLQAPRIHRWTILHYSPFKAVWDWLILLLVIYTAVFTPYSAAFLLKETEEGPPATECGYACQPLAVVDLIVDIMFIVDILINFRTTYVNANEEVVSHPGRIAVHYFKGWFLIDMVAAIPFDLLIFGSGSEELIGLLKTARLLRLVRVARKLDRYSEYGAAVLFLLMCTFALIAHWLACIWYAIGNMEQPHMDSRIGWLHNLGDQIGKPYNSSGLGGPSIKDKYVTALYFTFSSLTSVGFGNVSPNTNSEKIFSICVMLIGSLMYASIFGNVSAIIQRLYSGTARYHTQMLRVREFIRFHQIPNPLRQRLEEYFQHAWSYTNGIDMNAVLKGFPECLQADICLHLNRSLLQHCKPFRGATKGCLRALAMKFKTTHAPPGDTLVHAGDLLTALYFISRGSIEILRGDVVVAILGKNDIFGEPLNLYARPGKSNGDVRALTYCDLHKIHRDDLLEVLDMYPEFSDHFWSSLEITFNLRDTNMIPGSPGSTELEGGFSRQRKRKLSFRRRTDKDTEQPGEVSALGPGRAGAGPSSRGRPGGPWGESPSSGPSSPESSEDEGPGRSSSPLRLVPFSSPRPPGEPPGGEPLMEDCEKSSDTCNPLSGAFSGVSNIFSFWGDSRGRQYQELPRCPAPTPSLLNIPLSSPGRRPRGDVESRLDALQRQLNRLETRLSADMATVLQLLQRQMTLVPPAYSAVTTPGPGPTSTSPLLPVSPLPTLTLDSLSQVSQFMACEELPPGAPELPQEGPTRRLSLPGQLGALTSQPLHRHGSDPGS
row,SMILES,"hERG current change (%, negative = inhibition) at 10uM"
1,CCC(c1nnnn1CCc1ccccc1)N1CCN(c2ccc(OC)cc2)CC1 (stereo not shown),6.23%
2,CC(=O)Nc1c(O)nc(C)[nH]c1=O,6.51%
3,CC(=O)c1sc(NCc2ccc(C)cc2)nc1C,-9.58%
4,O=C(C1CCCN(S(=O)(=O)Cc2ccccc2)C1)N1CCC(Cc2ccccc2)CC1 (stereo not shown),-7.9%
5,C1N2CN3CN1CN(C2)C3,-2.53%
6,Cc1cccn2c(=O)c3c(nc12)N1CCCCCC1C1(C3)C(=O)N(C)C(=O)N(C)C1=O (stereo not shown),-1.39%
7,CSc1nnc2c3cc(C)ccc3n(Cc3ccccc3)c2n1,2.55%
8,Oc1c(Cl)cc(Cl)cc1CNc1nc2ccccc2[nH]1,12.7%
9,Cc1ccc(C)c(Sc2ccc(NC(=O)CCl)cc2)c1,4.44%
10,Cn1c(=O)oc2cc(S(=O)(=O)Nc3ccccc3)ccc21,9.35%
11,CCNC(=O)NNC(=O)C1CC(c2cccnc2)=NO1 (stereo not shown),27.3%
12,O=C(c1nc2ccccn2c1CNCCn1ccc2ccccc21)N1CCOCC1,-0.623%
13,Cc1nc(NCC2CCCO2)nc2c1C(=O)CC(C)C2 (stereo not shown),-16.7%
14,Cc1ccc(NC(=O)C2CCCN(S(=O)(=O)c3cccc4nonc34)C2)cc1 (stereo not shown),20.9%
15,COc1ccc(NS(=O)(=O)c2ccc(O)c(NC(=O)c3ccc(S(=O)(=O)N4CCCCCC4)cc3)c2)cc1,1.73%
16,Cc1nn2c(-c3ccc(S(=O)(=O)N4CCN(CCO)CC4)o3)nnc2c2ccccc12,-6.21%
17,COC(=O)c1ccccc1NC(=O)NCc1ccc2c(c1)OCO2,-11.4%
18,CC(=O)Nc1ccc(S(=O)(=O)N(C)c2ccc(OCC(=O)OCC(=O)Nc3ccc(OC(F)F)cc3)cc2)cc1,-5.79%
19,CCC(C)NCCOCCOc1ccc(Br)cc1.O=C(O)C(=O)O (stereo not shown),-18.1%
20,COc1ccc(S(=O)(=O)N2CCCCCC2)cc1C(=O)N(C)Cc1ccc(OC)c(OC)c1OC,-41.8%
21,CC(C)Oc1ccc(/C=N/NC(=O)c2nnn(-c3nonc3N)c2CN(C)c2ccccc2)cc1,5.45%
22,Cc1cc2c3c([nH]c2cc1S(=O)(=O)N1CCC2(CC1)OCCO2)CCCC3=O,17.2%

row,SMILES,"hERG current change (%, negative = inhibition) at 10uM"
1,Cc1c(Br)c(C(F)(F)F)nn1CC(=O)NCC1CCCO1 (stereo not shown),-10.9%
2,Cc1ccc(-c2nc3ccccc3[nH]c2=O)cc1,12.2%
3,Cc1noc(C)c1S(=O)(=O)NCCCN1CCN(Cc2ccccc2)CC1,-12.4%
4,CC1=NN(c2nc(-c3ccccc3)cs2)C(=O)C1N=Nc1ccccc1 (stereo not shown),7.24%
5,Cc1nnc(NN)n(N)c1=O,9.23%
6,Cc1ccc(/C=N/NC(=O)c2nnn(-c3nonc3N)c2-c2ccccc2)o1,11.7%
7,COc1ccc(CNS(=O)(=O)c2ccc3c(c2)N(C)CCO3)cc1,-11.3%
8,CCn1c(=N)n(CC(O)COc2ccc(C)cc2)c2ccccc21.Cl (stereo not shown),-70%
9,CC(=O)C1=C(C)NC(=O)CC1c1ccc(F)cc1 (stereo not shown),22.7%
10,COc1ccc(S(=O)(=O)NCc2cccnc2)cc1C,17.1%
11,CC12CCC(C(=O)[O-])(C/C1=N\O)C2(C)C.[Na+] (stereo not shown),18.6%
12,O=C(Nc1ccc2ccccc2c1)c1nn(C23CC4CC(CC(C4)C2)C3)cc1Br,7.31%
13,O=C(C1CC(c2cccc(Br)c2)=NO1)N1CCc2ccccc2C1 (stereo not shown),3.06%
14,CCOC(=O)c1ccc(NC(=O)NCc2ccn(CC)n2)cc1,-0.463%
15,O=c1[nH]c(=O)n(C2OC(CO)C(O)C2O)cc1Br (stereo not shown),26.2%
16,Cc1cccc(NC(=S)NCCN2CCOCC2)c1C,13.9%
17,O=C(c1ccc([N+](=O)[O-])cc1)N1CCSC1c1ccccc1 (stereo not shown),-39.3%
18,O=C(COc1ccc(S(=O)(=O)N2CCCCC2)cc1)NC1CCCCC1,1.8%
19,O=C(CS(=O)CC(=O)Nc1cccnc1)Nc1ccc(F)cc1 (stereo not shown),30.5%
20,c1ccc(-c2csc(NC3=NCCCCC3)n2)cc1,-9.29%
21,O=C(CSc1nnc(-c2cccnc2)n1Cc1ccco1)N1CCc2ccccc21,-47.6%
22,Cc1ccc(CSc2nnc(SCC(=O)N/N=C/c3ccccc3OCC(=O)O)s2)cc1,-1.44%

row,SMILES,"hERG current change (%, negative = inhibition) at 10uM"
1,CC1(c2ccc(Cl)cc2)NC(=O)N(CC(=O)Nc2ccc(F)cc2)C1=O (stereo not shown),-5.32%
2,Nc1ccc2ncccc2c1,4.28%
3,COc1cc2[nH]c(=S)n(Cc3ccc(C)cc3)c(=O)c2cc1OC,12.2%
4,CCN1C(=O)Cc2cc(S(=O)(=O)NCCc3ccccc3)ccc21,12.8%
5,COc1ccc([N+](=O)[O-])c(S(=O)(=O)c2ccc(Cl)cc2)n1,0.869%
6,CCOC(=O)C1(CCc2ccccc2)CCN(C(=O)CCc2cnccn2)CC1,-66.5%
7,O=S1(=O)CCOC[C@H](c2ccccc2)N1Cc1cccc(Cl)c1,5.66%
8,O=C(CN(C(=O)c1csnn1)c1ccccc1C(F)(F)F)NCc1ccccc1,16.8%
9,CCC(C)(C)NC(=O)Nc1cc(Cl)ccc1OC,12%
10,CC1=C(C(=O)Nc2ccc(C(=O)NC(C)c3ccccc3)cc2)SCCO1 (stereo not shown),11.9%
11,COc1cc(/C=C(\C#N)c2nc3ccccc3[nH]2)cc(Br)c1OCc1ccc(F)cc1,-1.54%
12,COC(=O)c1ccccc1NC(=S)NC(=O)c1ccccc1,10.2%
13,CCOc1ccc(N(C(=O)c2ccc(S(=O)(=O)N3CCCC3)cc2)C2C=CS(=O)(=O)C2)cc1 (stereo not shown),-51.9%
14,CCN(CC)S(=O)(=O)c1ccc(N2CCOCC2)c(NC(=O)c2ccccc2F)c1,-15.8%
15,CCOC(=O)N1CCN(CC(O)COCc2cc(OC)c(OC)c(OC)c2)CC1.Cl (stereo not shown),23.5%
16,CCCn1cc(CN2CCN(Cc3ccc(C)o3)C(CCO)C2)c(C)n1 (stereo not shown),9.1%
17,COC(=O)CCC(NS(=O)(=O)OCC(Cl)(Cl)Cl)c1ccccc1 (stereo not shown),-14.3%
18,COc1cc(/C=C/c2ccc3cccc(O)c3n2)ccc1O,-0.305%
19,Cc1cc(C)nc(Nc2n[nH]c(-c3ccc(C(C)(C)C)cc3)n2)n1,17.9%
20,CCOC(=O)C1=C(C)N=C2SC(C(=O)OC)=CC(=O)N2C1c1cccc(OC)c1 (stereo not shown),-3.16%
21,Cn1c(=O)c2cc(S(=O)(=O)Nc3cc(C(=O)O)cc(C(=O)O)c3)ccc2n(C)c1=O,21%
22,COc1cccc(C(=O)N(c2ccccc2)C2C=CS(=O)(=O)C2)c1 (stereo not shown),7.58%

row,SMILES,"hERG current change (%, negative = inhibition) at 10uM"
1,O=C(CC(Sc1ccc(Br)cc1)C(=O)O)c1ccc(Br)cc1 (stereo not shown),1.74%
2,CCCCNc1nc2sc3c(c2c(=O)n1-c1cccc(Cl)c1)CCN(C)C3,-0.439%
3,Cc1ccc(C(=O)N2CCCC(CCC(=O)N3CCN(c4ccccn4)CC3)C2)cn1 (stereo not shown),-11.1%
4,O=S(=O)(NCCNS(=O)(=O)c1ccccc1)c1ccccc1,-4.94%
5,Cc1sc(-c2ccccn2)nc1OC(=O)c1cccc(Cl)c1Cl,5.12%
6,Cc1cc([N+](=O)[O-])nn1CC(=O)N(C)C1CCCCC1,-18.6%
7,Cc1cc(C)n(CCOc2ccc(Cl)cc2Cl)n1,13.8%
8,NCCCC[C@@H]1NC(=O)c2cc([N+](=O)[O-])cc(F)c2NCCCC[C@@H](C(N)=O)NC(=O)CNC1=O,17.5%
9,CCN(C(=O)CSc1nnc(CNc2cccc(OC)c2)n1C1CCCCC1)C1CCS(=O)(=O)C1 (stereo not shown),-1.42%
10,COc1ccc(C(CC(=O)O)NS(=O)(=O)c2ccc(C)cc2)cc1OC (stereo not shown),12.4%
11,Cc1cc(C)cc(NC(=O)c2cccc(NC(=O)C3C4CC5OC(=O)C3C5C4)c2)c1 (stereo not shown),-46.3%
12,O=C(Nc1ncccc1O)c1ccc(S(=O)(=O)Nc2ccccc2)cc1,12.4%
13,O=C(O)c1cc(/C=N\O)ccc1OCc1ccccc1,11.4%
14,COc1cccc(CNC(=O)CN2C(=O)NC(Cc3ccccc3)(c3ccccc3)C2=O)c1 (stereo not shown),-17.5%
15,CS(=O)(=O)c1ccc(Cl)c(NC(=O)C2CCN(S(=O)(=O)c3cccs3)CC2)c1,-29.3%
16,CC(C)c1ccc(NC(=O)COC(=O)CCC(=O)c2cccs2)cc1,13.7%
17,O=c1c2[nH]cnc2n(-c2ccccc2)c(=O)n1Cc1ccccc1,2.02%
18,CCc1cccc(NC(=O)C2CCCN2S(=O)(=O)c2cccc3cccnc23)c1 (stereo not shown),-10.4%
19,CCOC(=O)c1nn(-c2ccccc2)c2nc(-c3ccc(OC)cc3)c(C#N)c(=O)n12,11.3%
20,COc1ccc(OC)c(-c2cc(C(=O)Nc3cc(C)on3)no2)c1,21.1%
21,O=S(=O)(c1ccc(O)cc1)c1ccc(O)cc1,16.9%
22,CN1C(=O)C(=O)/C(=C(/O)c2ccccc2)C1c1ccc([N+](=O)[O-])cc1 (stereo not shown),30.5%
